# Experimental data from the supplement of paper PMC11417369.
# ± gives the standard deviation of the averaged measurements. This is one part of the list.
# Tested on: PfAP2-I AP2 domain 3 (GST-tagged)
# Assay: gcPBM binding intensity (ln(normalized median fluorescence intensity)); higher = stronger DNA binding
# Outline: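 Each value is the highest Masliner-normalised natural-log median intensity across replicate spots of either orientation of a probe. The probes were primer-extended double-stranded 36-bp intergenic genomic sequences on an Agilent 4 × 180k array, alongside negative controls, exposed for 1 h to GST-tagged P. falciparum DNA-binding domains expressed in E. coli. Bound protein was picked up with Alexa488 anti-GST antibody and scanned at 488 nm.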
row,Sequence,gcPBM binding intensity (ln)
1,AAACAGAATACATATACACACATACAAAAAAGTGCA [CACACA_site8235],7.95 ± 0.35
2,TTATGAAATAGAATAACACACATATTTATATATGTG [CACACA_site2050],7.42 ± 0.59
3,TTTAATGAAAGAAACACATACGTATCAAAATATATG [TGCATGCA_negctrl_site510],7.71 ± 0.69
4,TACGTTGTATATTTTTGTACATATTGAATTACAAAA [XGTACX_site5906],7.75 ± 0.23
5,TTTTAATAATTTATAAAAAAAAAAAAAAAATAAATA [TGCATGCA_negctrl_site419],7.42 ± 0.33
6,GTGTACAAAATATGGTAATAAAGTAGTTACATGAAT [CACACA_negctrl_site1775],8.04 ± 0.72
7,CTAAATTGTTAATAGAGTACATTTGTATAATATAAG [XGTACX_site594],7.68 ± 0.35
8,AATAAAATATAATAATTAATATATATATATATATAA [GTGCAC_negctrl_site457],7.7 ± 0.35
9,TTATGTTGTAAATACACACATACATATACATACACA [CACACA_site733],7.84 ± 0.4
10,TATGTGAAATAAGGATGTACAATTTTGATTTCCCCA [XGTACX_site8389],7.83 ± 0.56
11,CATATAAACAATAACACACACCTAGGTACATGGAAA [CACACA_site4615],8 ± 0.56
12,CTTTTTAATTTATCGACACACGCATGAATAGAAATT [CACACA_site9112],7.9 ± 0.47
13,AAAGCAAATAATAAGTGTACGGGTCAATATATGCGT [XGTACX_site1519],8.09 ± 0.61
14,GAACAATATATTTGCACACAAAAAATATATATTTAT [CACACA_site3317],9.54 ± 0.29
15,TAGATTTAAAAAAAAAAAAAATTTTTTTTTTTTTTT [TGCATGCA_negctrl_site593],8.4 ± 0.84
16,GAATACTCATTTCTTTGTACATATATATGTGTATTT [XGTACX_site6411],7.73 ± 0.59
17,ATACAAGTATTAATTACACACTCAAAAAGAAAAAAC [CACACA_site5287],7.8 ± 0.61
18,GGATAAAAAATATGTACACACATATAGATATCTATA [CACACA_site2693],7.89 ± 0.31
19,GTTTACATCATTCTGGTGCAAAAAAAAAAAAAAATA,10.7 ± 0.27
20,TTCATATGGAATAAAAGTACGTATTAAAACAATTTT [XGTACX_site8742],7.93 ± 0.52
21,CAGACATATTAAAAGAGTACATATATATATATATAT [XGTACX_site1158],9.6 ± 0.36
22,TGTTTATTACTCAGGTGTACTCAATTTTTTTTTTTT [XGTACX_site3470],8.03 ± 0.38

row,Sequence,gcPBM binding intensity (ln)
1,TACACAAATATATACATACACACATATATACGCATA [CACACA_site394],7.72 ± 0.47
2,TAATATTGACTATATACACACATATATATATATATA [CACACA_site575],9.39 ± 0.57
3,TATTTACAAAAAAAATATAAAAAATATAAAATATAT [CACACA_negctrl_site575],7.39 ± 0.42
4,TGTATAATATTTGGTGCACACAAATTAACAACTGTT [CACACA_site9245],11.1 ± 0.54
5,AATATTAAAATAAAAAGTACTTATTTATGTATGTTG [XGTACX_site2682],7.75 ± 0.32
6,TTTATATAACAACAAAATGGAAATATATATGTATGT [TGCATGCA_negctrl_site98],7.95 ± 0.57
7,AAAAAAAAAAAAGAACGTACAAATTAATTTATAGAA [XGTACX_site5584],7.7 ± 0.35
8,ATATATCTATAAAAGGCTTCCCACTTTTTTTGTCAA [TGCATGCA_negctrl_site332],7.55 ± 0.95
9,ATAATAAAAAAAATTAGTACATATATAAATATAAAT [XGTACX_site1937],7.51 ± 0.42
10,TAATTTCTTAGGTATTGTACAAATATTATATGATAT [XGTACX_site256],7.55 ± 0.59
11,AGTACATTTTTGTGTGTGCACTAATATTATATACTT [GTGCAC_site9568],11.3 ± 0.62
12,ATAAAAAAAAAAAAAAGTACACATATAAAAGTATTG [XGTACX_site8265],7.83 ± 0.26
13,TAAATAATATCTATCACACACGCATAAATACAGATA [CACACA_site5449],7.71 ± 0.25
14,ATTTATTTTATTTTCACACACAAAAATAAATATCCG [CACACA_site2414],7.83 ± 0.64
15,AAATTTATGTGTGCCTGTACATATCAAAGATTTAAG [XGTACX_site8547],7.93 ± 0.34
16,CGCAATTAAAATATGTGTCCTCATTTTATAACATTT [XGTACX_site5340],7.73 ± 0.58
17,ATTCTACCACGCGATATACACACTTGTAGACATCTT [CACACA_site188],8.21 ± 0.68
18,TATAATGTATGTAGTGCACACCTCTATAATATATTA [CACACA_site8560],10.9 ± 0.64
19,AAATGAATAAATAGGTCACACACAAATATATATAAA [CACACA_site8764],7.79 ± 0.59
20,ATATATATATATATATGTACATATACATATGTGCAA [XGTACX_site5604],9.07 ± 0.66
21,AATAAATAAAGAAGTACACACATATATATATATATA [CACACA_site4314],9.26 ± 0.23
22,TATTTTTAAAATATAAGTAAAAAAATAATATAAACT [TGCATGCA_negctrl_site283],7.88 ± 0.67

row,Sequence,gcPBM binding intensity (ln)
1,ATGTAATATTTACAACGTACAAATTATAAACATATT [XGTACX_site603],7.71 ± 0.57
2,TCATATTGGCTGTTCTGTACTTATAAGTTTTAAAGA [XGTACX_site5593],7.9 ± 0.51
3,TTTGTTAATATAAAAACACACAAAAATAACATAAAA [CACACA_site2619],8.04 ± 0.58
4,TATATTAAAAAAGAGGTGCATTCGTAAGAGGTTAAA [GTGCAC_site9720],10.18 ± 0.042
5,AATCCCCACTTGTCAAGTACATATATCATGGATGAA [XGTACX_site3486],7.82 ± 0.58
6,TATTTATAACAAAGGTTAAATTAAAACTAATCCACA [TGCATGCA_negctrl_site3],7.89 ± 0.24
7,GCCAAAATCTAATTTACACACTTATTAAATAATTAC [CACACA_site6251],7.74 ± 0.57
8,GACATAGTCATATACTGTACTTTATATTATTGTGTA [XGTACX_site6636],7.49 ± 0.46
9,TTTTTTTTTTTTTTTTGTACTTATAAAAAATTTTTT [XGTACX_site1249],8.08 ± 0.47
10,TACAGATATAAACACACACACATATATATATATATA [CACACA_site4846],9.46 ± 0.66
11,TTTTTTTTCATTGGTTGTACAATATTTATAATTCAC [XGTACX_site7036],8.24 ± 0.52
12,TTATGTAAAAAAAAAAAAAAAAAAAAAAAAAAAAAA [CACACA_negctrl_site984],8.46 ± 1.1
13,GATAAAGTACTTTATACACACAAATATTTATTTATA [CACACA_site7795],7.91 ± 0.28
14,TCTTCATATAAGAACACATGCAGATTTTTATTATTG [TGCATGCA_site682],7.79 ± 0.65
15,AAAAAAAAAAAAAAACGTACACATATTATGTTATTT [XGTACX_site5264],8.44 ± 0.5
16,CATATAATATAATTATGTACATATATAATAATATAC [XGTACX_site5278],7.64 ± 0.34
17,AAAAAAAAGTTGTATTGTACAAAAAAAAAAAAAAAA [XGTACX_site8334],8.06 ± 0.67
18,TCATAAAAACTAATACGTACTTAAAAATATGAACTT [XGTACX_site2939],7.63 ± 0.43
19,GTACAAAAAAAAATAAAATACATATATATATATATA [GTGCAC_negctrl_site364],9.51 ± 0.22
20,AAAATATTTCATATATGTACTTAAAAAAAAAAAAAA [XGTACX_site5399],8.05 ± 0.16
21,TATTATATATATGTTGACATATTTGTACACTCCACT [TGCATGCA_negctrl_site200],8.17 ± 0.31
22,GAATATATAAGATACACACACAAATTAAATATAAAA [CACACA_site2781],7.79 ± 0.57

row,Sequence,gcPBM binding intensity (ln)
1,AAAAAATTCATATATACACACACGCACATATATATA [CACACA_site4226],8.18 ± 0.71
2,CACTTTTCTGGAAAAATTCCCACATTTTTTTATTAA [GTGCAC_negctrl_site322],8.04 ± 0.53
3,AAAAAAAAAAAAAACACACACACACGCATAAATATA [CACACA_site6217],8.44 ± 0.49
4,ATTATTTAGAAATGAGCACACAAAAAGAAGAATTTT [CACACA_site7913],7.89 ± 0.71
5,TATTTATTTATTTATGCATGCATGAATAATTTTTAC [TGCATGCA_site31],8 ± 0.71
6,ATAATAATATAAAATACACACCTATTATTTTTACAA [CACACA_site6069],7.71 ± 0.6
7,ACAAGAGAAGTAATTGCACACGTTGTTTCTTTTTCT [CACACA_site35],9.07 ± 0.39
8,CCACATATACAAAACACACACACAACGTTTTAATAA [CACACA_site1978],7.92 ± 0.4
9,TCACTATAGTAATTTACACACATTTGAAGAAAATGT [CACACA_site7626],7.92 ± 0.24
10,TTATCATTTGGACACGCACACACACCGAAAAAGAAA [CACACA_site8008],8.41 ± 0.33
11,AATAATTTAAGGAATACACACAAGAAAAAAATAAGA [CACACA_site60],7.89 ± 0.73
12,TTTTTTGCTAAAAAGAGTACTAATAAAAAATTTATT [XGTACX_site5235],7.6 ± 0.51
13,TTTTTGTAATTATATTAATATATATATATATATATA [CACACA_negctrl_site198],9.08 ± 0.11
14,CATATATGTGATAACACGCACACAAATGTATAGAAT [CACACA_site2594],7.96 ± 0.57
15,GTTCATCACATATACACATGCATATTCTAATATGTA [TGCATGCA_site809],8.34 ± 0.53
16,ACATTATATAAAATATGTACATATAAAAAATTCTAT [XGTACX_site1617],7.95 ± 0.38
17,TTAATTTTTGAAGGTACACACTAATATATTAAATAT [CACACA_site4791],7.89 ± 0.54
18,TTATCCCCCTATCATTGTACATTAATACAAACTAAA [XGTACX_site5630],8.85 ± 0.12
19,AAAATGAAACAAATATGTACACATATAAATATTTCC [XGTACX_site54],7.55 ± 0.54
20,AAAACAGACAAACACACACACACATATATATATATA [CACACA_site3393],9.43 ± 0.4
21,CTTTTAATTATAAAATGTACTTAAAAATAATAATAC [XGTACX_site635],7.91 ± 0.13
22,ATATTTGTAATTATTAAACACACACTAATTATATAT [CACACA_site8803],7.84 ± 0.51
